Reference: the supplement of paper PMC3334620
Over roughly 33,000 sequences, “E-score (-0.5 to 0.5)” has its median near -0.032; the highest 2% begin near 0.36. Some of the results follow.

The sequences below were run against T1, Sko1 (UniProt Q02100) (assay: PBM E-score (8-mer binding enrichment) (E-score (-0.5 to 0.5)); higher = stronger / more preferred TF binding; most listed sequences are background and not binding sites). Conditions: protein concentration: 200 nM; construct: GST-full length.
T1 sequence: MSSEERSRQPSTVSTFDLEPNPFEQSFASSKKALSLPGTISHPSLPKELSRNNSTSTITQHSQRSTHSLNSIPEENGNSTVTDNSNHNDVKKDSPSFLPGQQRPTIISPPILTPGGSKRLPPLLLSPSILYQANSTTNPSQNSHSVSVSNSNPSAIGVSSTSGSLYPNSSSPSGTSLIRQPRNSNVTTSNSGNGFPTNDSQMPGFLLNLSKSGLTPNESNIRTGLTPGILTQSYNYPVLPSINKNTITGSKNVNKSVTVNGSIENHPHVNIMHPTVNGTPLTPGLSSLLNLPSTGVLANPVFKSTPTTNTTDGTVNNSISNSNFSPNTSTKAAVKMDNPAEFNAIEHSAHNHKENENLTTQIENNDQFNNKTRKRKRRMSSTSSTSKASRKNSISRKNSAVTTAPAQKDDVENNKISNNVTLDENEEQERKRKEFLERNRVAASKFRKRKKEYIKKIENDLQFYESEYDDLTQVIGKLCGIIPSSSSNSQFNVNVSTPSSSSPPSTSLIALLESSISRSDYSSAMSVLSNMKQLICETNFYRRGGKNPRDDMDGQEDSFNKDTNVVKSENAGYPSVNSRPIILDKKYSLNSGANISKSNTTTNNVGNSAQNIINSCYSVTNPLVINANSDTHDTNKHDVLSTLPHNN
Method in brief: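 Universal all-10-mer Agilent arrays, double-stranded by primer extension on fresh or once-stripped slides, were probed with about 100-200 nM GST-tagged yeast transcription factors made by PURExpress. Fluorescent anti-GST detected bound protein, and masliner normalised the scans. E-scores from the Universal PBM Analysis Suite were given to each ungapped eight-base word pooled with its reverse complement.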

Sequence	PBM E-score
ACCGATCA	-0.0191
ACTTTGCA	-0.0269
ATTGGTAC	-0.0769
TACATGCA	0.0816
AACGAATC	0.182
AGTCCCAT	-0.166
TCTGTCCA	-0.0197
CAGGAGTA	-0.0469
GAACCCTA	-0.137
AGAGTTTC	-0.144
CGGATTTC	-0.233
AAATCTCG	0.014
TCAGGGGA	-0.189
CCCCGCAA	-0.0199
CCACCTTC	-0.295
CAGTGAGG	-0.193
GGTTCGAA	0.043
CCTCTCAA	-0.0829
ACAAGCAG	-0.165
CACTTGCG	0.0319
ATGTGCGC	0.0502
AGGCGTAG	-0.177
CGCTCGGC	-0.187
CCCGACCA	-0.179
CAGTGGAG	-0.149

Sequence	PBM E-score
CGGCTTCA	-0.107
GTCCGCAC	-0.00114
CAATTGCA	-0.0524
GATGAGCA	0.127
ACGGACGT	0.192
AATAGAAA	0.0829
CACAAAGC	-0.122
GTTGATTA	0.196
CAGCACAA	0.153
ACGGGGCT	-0.227
CTAATCAG	-0.0472
TATCTACA	0.0403
CCGCCATC	-0.29
GAGGTAAC	0.0793
ACAAGAAC	0.26
CGCGGCCA	-0.143
AGAACTTG	0.0393
AATGGCTG	-0.0573
GTAGCTTA	0.23
CATCCTCC	-0.03
ATTACTCG	0.204
ATACTGTG	-0.0411
ATCATTAC	0.341
CAACCCTA	-0.0806
ATAGTCGC	-0.0441

Sequence	PBM E-score
ATGTGAGA	-0.0663
CGTGGCTC	-0.0473
CCGCATTC	-0.0977
ACCACTCA	0.00664
CCTCGCCC	-0.0714
AAGCCAGC	-0.0946
CCGGCCTA	-0.118
CTTCTATC	-0.208
GCACATGC	-0.122
GATTAGAC	-0.0201
CCGGATTA	-0.121
AGCGGACC	-0.244
GGTGCTAC	-0.189
ATACTCAC	0.0311
ATGAGGGG	-0.289
CGTACATC	0.244
GAGTAAGC	-0.211
CATAAACG	0.25
ACACATCG	0.0864
CTGTCGCA	-0.19
ATAACGGC	0.0392
ACCAGAAT	-0.0268
ATTGCTTA	0.034
CAGCTTAG	-0.168
ATTTGCAC	0.199

Sequence	PBM E-score
ATTTTGTG	0.173
ACCCGCAT	-0.134
GGCGTCAA	0.235
CCACAGCG	-0.138
GCCCGCCA	-0.175
CCTTGATC	-0.155
CGCCCCAG	-0.141
ACATGAAG	-0.0534
CACAATGG	0.094
CATCATTA	0.359
GAGCATGC	-0.262
AGCGGCGG	-0.267
AGCATATA	0.0246
TTATATAA	0.298
GGGTCAGA	-0.219
CTCTACAA	-0.111
AGATACAA	0.254
CACCGAGA	-0.266
CCAACTGC	-0.196
ACAGCGGA	-0.0805
AAGCGGGA	-0.108
AACCGCAC	0.0215
AGGGAATA	0.0115
TATATATA	0.204
ATGCATGG	0.0564

Sequence	PBM E-score
AGACCTCC	-0.313
ATCTGGTA	-0.0293
GTAAGTTA	0.219
CAAGCATC	-0.0904
ACGTACGC	0.453
CGTTATTA	0.303
ACAAGGAC	-0.133
CTCGTCTC	-0.19
CTCTTCAG	-0.151
GAAGTGGC	-0.0533
CCTACGGA	-0.182
GCCGTTTA	-0.0691
CGTTTGTA	0.162
AGGCGCTG	-0.187
ATGTTCAC	0.0503
CCGACATC	-0.0792
GAGAATCA	-0.096
TATCCGCA	0.124
GATGTCAA	0.123
ATTCCAGA	0.107
CATGGGGA	-0.068
CATGCTCC	-0.152
AGTGCGGG	-0.0259
CGACCAAG	-0.00522
TGGAAAAA	-0.0546

Sequence	PBM E-score
AGTACTAG	0.00268
CTTTTGAC	0.074
AGAACAGA	-0.0893
CGATAAAA	0.148
ACCCTTAC	0.0887
CCTCAGGC	-0.163
CTTTCAAC	0.044
AACCTTGC	-0.168
AGGGTTAG	-0.0357
CGGACTCC	-0.273
GTCGTCCA	-0.127
ACATATGA	0.273
AAGACCGG	-0.284
CGGTGAAC	-0.0247
CACGTCTG	0.23
CAGCTAGG	-0.334
ACGTCACA	0.481
CGATATAG	0.0481
GCGGAACA	-0.223
GGGCGACC	-0.351
AAATACAC	0.23
CAACTGCA	0.0816
AGCGCCCC	-0.402
CACGCTCG	-0.0628
CTTTGTTA	0.135

Sequence	PBM E-score
AGTGCAAA	0.158
ACCCGTCA	0.173
ATTATGAC	0.349
CGGGACCC	-0.434
CTTGAGGA	-0.102
AATGGGAC	-0.215
CACGATCG	0.0307
GTGAGCAC	0.108
CAGGTGCA	-0.177
CAAATCGG	-0.117
CAACATAA	0.194
AGTGGGTG	0.00734
AACCCTGG	-0.228
CTTTTTGA	0.11
CCTTGACA	-0.0728
ACTTAGCC	0.0535
AATGTGTG	0.0774
CGCTGTTA	0.00349
ACATATCT	0.231
GTGTCGAA	-0.00179
CCACCACA	-0.0881
AACAAAGG	-0.0827
